± gives the standard deviation of the averaged measurements. Some of the results follow.
Each sequence was assayed on PfAP2-EXP AP2 domain (GST-tagged) (assay: gcPBM binding intensity (ln(normalized median fluorescence intensity)); higher = stronger DNA binding).
Procedure, shortened: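 Binding intensity is defined as the maximum Masliner-normalised natural-log median intensity across replicate spots for either probe orientation. It was measured on an Agilent 4 × 180k array of primer-extended double-stranded 36-bp intergenic genomic probes and negative controls, to which GST-tagged P. falciparum DNA-binding domains made in E. coli were applied for 1 h in 1× PBS with 1% milk, 0.2 mg/ml BSA, 0.5% salmon testes DNA and 0.03% Triton X-100. Detection was by Alexa488 anti-GST antibody and scanning at 488 nm.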
For “ATACATATAAAAAAGTGTACATATTAAAATAAGTAT [XGTACX_site1310]”, the “gcPBM binding intensity (ln)” value was 8.54 ± 0.3.
For “TCATACAAACCTATTTGTACATAAGTATAATATATA [XGTACX_site4284]”, the “gcPBM binding intensity (ln)” value was 8.23 ± 0.43.
“AATGCAAATAATAAAACACACAAAAAAAAGAAAAAA [CACACA_site1184]” was tested, and the “gcPBM binding intensity (ln)” value was 8.33 ± 0.41.
In the case of “ATATCCGTTCAAAGATGTACATATATATTCTATAGA [XGTACX_site5354]”, the “gcPBM binding intensity (ln)” value is reported as 8.73 ± 0.46.
For “TATTGCCCTGGACACACACACATATATATATATATA [CACACA_site5389]”, the “gcPBM binding intensity (ln)” value was 10.2 ± 0.51.
With “ATTATTATTATATATGCATGTAAAATATTAAAGTAC [TGCATGCA_site914]” the “gcPBM binding intensity (ln)” value was 9.005 ± 0.078.
In the case of “TTATGTTATATAAAAAGTACAAATTTTTTTTAATTA [XGTACX_site3435]”, the “gcPBM binding intensity (ln)” value is reported as 8.21 ± 0.64.
For “ATAATATAAACATACACACACACATCTATATTTATA [CACACA_site7381]”, the “gcPBM binding intensity (ln)” value was 8.52 ± 0.45.
With “TATAAATAGATATATACACACATTTTTAATGATAAA [CACACA_site7299]” the “gcPBM binding intensity (ln)” value was 8.21 ± 0.4.
With “AAAAAAAAAAGACACACACACAATAGTATATAAATC [CACACA_site6579]” the “gcPBM binding intensity (ln)” value was 8.72 ± 0.48.
With “TATATATATATATTACGTTTTAAATATACTAATCTT [CACACA_negctrl_site32]” the “gcPBM binding intensity (ln)” value was 10 ± 0.42.
With TTTTTATTTTTTCAAGTGCATATTTTTGGCTTCTTA the “gcPBM binding intensity (ln)” value was 8.59 ± 0.24.
In the case of “TAAATTTATATATAGGTGCGCAATTTGATAATAGTT [GTGCAC_site9783]”, the “gcPBM binding intensity (ln)” value is reported as 8.99 ± 0.35.
For “CTTTTTCCTTTATATTGTACATAATTAAAGATAATA [XGTACX_site7014]”, the “gcPBM binding intensity (ln)” value was 8.64 ± 0.52.
For “AAAAAAAAAAAAAATACACACATATATATATATATA [CACACA_site85]”, the “gcPBM binding intensity (ln)” value was 10.1 ± 0.34.
For “TAAATACAGACATATACACACATATATATATATATA [CACACA_site4382]”, the “gcPBM binding intensity (ln)” value was 10.1 ± 0.52.
For “ATGTATATGTTTTGTTGTACAAGTATTTTATATCTT [XGTACX_site3588]”, the “gcPBM binding intensity (ln)” value was 8.91 ± 0.34.
TTTCAATTTATCAGTGTGCACAAAAATAAAATAAAA was tested, and the “gcPBM binding intensity (ln)” value was 8.965 ± 0.049.
“AATAAAAATATAGGCACACATATTAAAATGAACTTA [CACACA_site830]” was tested, and the “gcPBM binding intensity (ln)” value was 8.53 ± 0.42.
With “TAAAGATGTATTTATTCACACATCTCATATAATGAA [CACACA_site5229]” the “gcPBM binding intensity (ln)” value was 8.11 ± 0.31.
With “TTATGTATCCTTATAAGAAAAAAAAAAAAATTCTCT [CACACA_negctrl_site1183]” the “gcPBM binding intensity (ln)” value was 8.19 ± 0.55.
“TGAATTTAGATATATACACACAAAAGTAAATACAAT [CACACA_site5548]” was tested, and the “gcPBM binding intensity (ln)” value was 8.56 ± 0.63.
For “AGTAGTCTGGAGAAAAGTACACAGTATCTGGTAACC [XGTACX_site2035]”, the “gcPBM binding intensity (ln)” value was 8.54 ± 0.4.
“GAATATTAAACAAACACACACACATATATATATATA [CACACA_site3382]” was tested, and the “gcPBM binding intensity (ln)” value was 10.1 ± 0.32.
“TTTAAATATATTCAATCACACACATTCGTTTTTTTT [CACACA_site7962]” was tested, and the “gcPBM binding intensity (ln)” value was 8.59 ± 0.46.
For “AATATATACATACATACATGCATACATATATATAAC [TGCATGCA_site371]”, the “gcPBM binding intensity (ln)” value was 8.73 ± 0.23.
With “GTTTATTGATTTATTTGTACTTATATATATATTTCA [XGTACX_site5098]” the “gcPBM binding intensity (ln)” value was 8.99 ± 0.44.
For “GTATAAAAATTATATACACACAACAGAATTACATAT [CACACA_site133]”, the “gcPBM binding intensity (ln)” value was 8.69 ± 0.44.
With “TACCTATATACATACACACACATATAACCAATGTAG [CACACA_site7096]” the “gcPBM binding intensity (ln)” value was 8.71 ± 0.53.
“AGAAGATTAAAAATTGCACACAAAAATATATTTTCT [CACACA_site8359]” was tested, and the “gcPBM binding intensity (ln)” value was 8.36 ± 0.35.
“TAATAAATAAAAACATGTACATATATACATATATGT [XGTACX_site485]” was tested, and the “gcPBM binding intensity (ln)” value was 8.6 ± 0.2.
For “AAAGACTTTTTATGAGCACACACATATATTATGGAG [CACACA_site8254]”, the “gcPBM binding intensity (ln)” value was 8.55 ± 0.3.
With “GATATATAGGTATTTACACACAATGTGAGATCTATA [CACACA_site7575]” the “gcPBM binding intensity (ln)” value was 8.5 ± 0.41.
For “ATGATTATACAAAATATACACACGTGGACACAAATA [CACACA_site8304]”, the “gcPBM binding intensity (ln)” value was 9.1 ± 0.33.
“TGATAATAAGCATACACACACACACTAAAAAAAAAA [CACACA_site6478]” was tested, and the “gcPBM binding intensity (ln)” value was 8.65 ± 0.56.
In the case of “TTTCTATAATATATATGTACATATATAATATGTCGT [XGTACX_site3676]”, the “gcPBM binding intensity (ln)” value is reported as 8.55 ± 0.42.
For “AGATAAAATAAATACACACACATAAATACGTACAAA [CACACA_site4739]”, the “gcPBM binding intensity (ln)” value was 9.04 ± 0.33.
For “TATGGGGAACTATAATGTACGTATTCCTCATATATA [XGTACX_site338]”, the “gcPBM binding intensity (ln)” value was 8.69 ± 0.33.
With “ATTAAAATAGAAAAAAAAAAAAAAAAAAAAAAAAAA [CACACA_negctrl_site1117]” the “gcPBM binding intensity (ln)” value was 8.05 ± 0.45.
For “GATGATACACAGGTGTTGCACTTAAATGCAGTTCTT [GTGCAC_site9627]”, the “gcPBM binding intensity (ln)” value was 8.69 ± 0.29.
For “TTTTCAAAATGTTGTACACACAAAAAAAAAAAAAAA [CACACA_site1550]”, the “gcPBM binding intensity (ln)” value was 8.45 ± 0.63.
For “TAAATTTTGTTTAGCACACACACATACATACATACA [CACACA_site3155]”, the “gcPBM binding intensity (ln)” value was 9.15 ± 0.18.
For “TTGTATTGTATATGCACACATAGAACACTTTTTTTT [CACACA_site4133]”, the “gcPBM binding intensity (ln)” value was 8.62 ± 0.13.
With “TAATCATTTTTAAATTGTACAATTTATATAATAAGT [XGTACX_site6081]” the “gcPBM binding intensity (ln)” value was 8.5 ± 0.26.
“TTGATATACTATGACACATGCAAATAAAACATTATA [TGCATGCA_site535]” was tested, and the “gcPBM binding intensity (ln)” value was 8.64 ± 0.44.
For “TATATCTGTATCATTACACACATGTATACTTATTTG [CACACA_site6134]”, the “gcPBM binding intensity (ln)” value was 8.74 ± 0.43.
For “TATTTTTTAAGTGAACATTTGTTATTATATTCTTAT [GTGCAC_negctrl_site172]”, the “gcPBM binding intensity (ln)” value was 8.48 ± 0.41.
“CTATATATTTTTCATTGTACACAAATTAAAGAAAAA [XGTACX_site8385]” was tested, and the “gcPBM binding intensity (ln)” value was 8.48 ± 0.18.
With “TTTTTTTATAAATTCACACAAAATATAATATTAAAA [CACACA_site4766]” the “gcPBM binding intensity (ln)” value was 8.3 ± 0.42.
With “AATGTCATCATATTCATATATATTTATTTCTTTTTG [GTGCAC_negctrl_site500]” the “gcPBM binding intensity (ln)” value was 8.53 ± 0.53.
With “ATGATGGAATATTCTACACACAATTAATAAACAAAC [CACACA_site1045]” the “gcPBM binding intensity (ln)” value was 9.05 ± 0.79.
With “ATATAATCCTTTCAAACACACAAAATATAATTAATA [CACACA_site1829]” the “gcPBM binding intensity (ln)” value was 8.54 ± 0.48.
“ATAAATAATAAGGTTACAACAAACACACAAAGGAAT [XGTACX_negctrl_site611]” was tested, and the “gcPBM binding intensity (ln)” value was 9.2 ± 0.45.
With “GGTTATAACCCACATGCACACGTAAATAAATATTAT [CACACA_site5992]” the “gcPBM binding intensity (ln)” value was 9.04 ± 0.47.
With “TGTCCAATTTATTGTGCACACCTCAAAAGTGGGTAA [CACACA_site3826]” the “gcPBM binding intensity (ln)” value was 8.84 ± 0.18.
With “TAAAAAAAAAAGTATACACACTTCTTAATGTCAACA [CACACA_site4818]” the “gcPBM binding intensity (ln)” value was 8.13 ± 0.49.
In the case of “CATATATATATATGTACACACATTAATAAAAAAAAA [CACACA_site3230]”, the “gcPBM binding intensity (ln)” value is reported as 8.53 ± 0.5.

— the supplement of paper PMC11417369
